This is an account of results in ChEMBL document CHEMBL4888484, “Replenishing the malaria drug discovery pipeline: Screening and hit evaluation of the MMV Hit Generation Library 1 (HGL1) against asexual blood stage Plasmodium falciparum ,using a nano luciferase reporter read-out” (2022).

SMILES strings stand for the structures. Among all 150,000 compounds or so, about 540 (0.36%) showed an effect of 50% or more. The list shows a part of the results.

The experiment deals with Plasmodium falciparum. The experiment is described as follows: Primary screen in NF54 nanoGlo assay, in single point, at 2uM, 72h; a lower Z score goes with more inhibition. Format: functional, Erythrocyte. Particulars: timepoint 72 hour.
As to `CNc1nc(N2CCN(Cc3ccc(C)o3)[C@@H](CCO)C2)nc2c1CCC2`, the % Inhibition (in general, the relative decrease from the control value, in per cent) was -3% and the Z score is listed as 0.61.

As to `CC(C)c1nccn1CC(=O)N[C@H]1[C@@H]2CN(Cc3ccccc3)C[C@@H]21`, the “% Inhibition” value worked out at 0% and the Z score is reported as -0.06.

Turning to `COCCOCCCNc1nccnc1NCCCOCCOC`, the “% Inhibition” value is reported as -5% and the Z score is on record as 0.81.

Take `COCCC1(CNc2ccc(C#N)nc2)CCCC1`: the “% Inhibition” value is -8% and the Z score turned out to be 1.09.

Turning to `CCN1CCCN(C(=O)C(=O)c2cccn2C)CC1`, the “% Inhibition” value is -10% and the Z score turned out to be 1.4.

As to `CCS(=O)(=O)N(CC(=O)N(Cc1ccc(C)cc1)C1CCN(C(=O)CCC2CCCC2)CC1)CC(C)C`, the “% Inhibition” value is -11% and the Z score is recorded as 1.44.

With `Cc1nsc(N2CCC[C@H]2CCc2ccccn2)n1`, the “% Inhibition” value came out at 0% and the Z score is -0.07.

Turning to `CCn1cc(OC(=O)c2cccnc2OC)cn1`, the “% Inhibition” value was -7% and the Z score came out at 1.02.

Consider `COc1ccc(-c2csc(N(C)c3ccc(O)cc3)n2)cc1`, for which the “% Inhibition” value is -11% and the Z score is reported as 1.52.

As for `CCN(Cc1cnn(CC)c1)C(=O)c1ccc(-c2nccc(N)c2OC)cc1`, the “% Inhibition” value was -17% and the Z score is 1.46.

In the case of `COc1nc(CNS(=O)(=O)c2ccc(C)c(C)c2)nc(OC)n1`, the “% Inhibition” value came to 3% and the Z score was -0.39.

With `CC(NC(=O)NCC(O)C1CCOCC1)c1csc2ccccc12` (stereo unspecified), the “% Inhibition” value is listed as -1% and the Z score came out at 0.11.

As to `C[C@H]1CN(c2nccnc2OC2CCC2)CCS(=O)(=O)C1`, the “% Inhibition” value is on record as -7% and the Z score came to 0.75.

On to `Nc1nnc(CCNC(=O)c2conc2-c2ccccc2)s1`, for which the “% Inhibition” value is given as -7% and the Z score is on record as 1.02.

In the case of `NC(=O)c1ccc(CNc2ccc3cccc(Br)c3n2)o1`, the “% Inhibition” value is -12% and the Z score is 1.4.

In the case of `Cc1cccnc1C[C@H](C)N(C)C(=O)Nc1ccccc1N1CCOC1=O`, the “% Inhibition” value is -8% and the Z score was determined as 1.44.

With `CN(Cc1ccccc1F)Cc1nnc2n1CCNC2=O`, the “% Inhibition” value is reported as -14% and the Z score was found to be 1.39.

For `c1ccc(-c2nc(CN[C@H]3CCc4ccccc4OC3)cs2)nc1`, the “% Inhibition” value was found to be 10% and the Z score was -1.21.

Take `CO[C@@]1(C)CCCN(C(=O)Nc2cc(F)ccc2OC(F)F)CC1`: the “% Inhibition” value is listed as 3% and the Z score is -0.64.

Regarding `NC(=O)[C@@H]1CN(c2nc(C3CCCC3)nc3c2CNC3)CCO1`, the “% Inhibition” value is reported as -13% and the Z score is listed as 1.58.

Take `CC(C)(C)C(=O)Nc1ccccc1C(=O)NCCC(=O)O`: the “% Inhibition” value is -2% and the Z score turned out to be 0.38.

For `CCN(C(=O)Cc1cccc(Br)c1)c1cccnc1`, the “% Inhibition” value is reported as -3% and the Z score came to 0.45.

As to `O=C(Nc1cccnc1)c1cccc(S(=O)(=O)N2CCCCC2)c1`, the “% Inhibition” value is -5% and the Z score is 0.95.

In the case of `COc1cc(NC(=O)c2cccn2-c2cccnc2)cc(OC)c1OC`, the “% Inhibition” value is -16% and the Z score was determined as 1.59.

In the case of `Cc1ccc(S(=O)(=O)Nc2sc3c(c2C(N)=O)CCC3)c(C)c1`, the “% Inhibition” value is -9% and the Z score stood at 0.89.

In the case of `Cc1cc(NC(=O)CCn2cc(Br)ccc2=O)n(C)n1`, the “% Inhibition” value is -6% and the Z score was determined as 0.7.

For the compound `OCc1nc(CCNc2ccncc2F)no1`, the “% Inhibition” value came out at 11% and the Z score was -1.25.

`Cc1nnc(N2CCC([C@@H](O)CCc3ccccc3)CC2)o1`: the “% Inhibition” value is -22% and the Z score is on record as 2.12.

With `CC(C)C(=O)N1CCOc2ccc(N(C)C)cc2C1`, the “% Inhibition” value was -2% and the Z score is recorded as 0.44.

With `Cc1nn(C)c(Oc2cccnc2)c1NS(=O)(=O)C1CCOC1C` (stereo unspecified), the “% Inhibition” value was 3% and the Z score is recorded as -0.44.

On to `COc1ccc(-c2nnc(Cc3nc(-c4ccc(F)cc4)no3)o2)cc1OC`, for which the “% Inhibition” value is -9% and the Z score is 1.14.

With `Cc1ccc2c(Nc3cccc(Cl)c3)c(-c3nc(C)no3)cnc2n1`, the “% Inhibition” value is 9% and the Z score is reported as -1.11.

Regarding `O=S(=O)(c1ccc(CNc2nc3c(F)cccc3o2)cc1)N1CCCC1`, the “% Inhibition” value is on record as 4% and the Z score was -0.76.

Take `Cc1cc(C)cc(-n2nc(C(=O)NCc3ccncc3)c(=O)n(Cc3cccc(Cl)c3)c2=O)c1`: the “% Inhibition” value was -12% and the Z score is 1.24.

With `Cc1nn(CC(=O)NCCNC(=O)c2nc(-c3ccccc3)no2)c(C)c1Br`, the “% Inhibition” value was 12% and the Z score is -1.2.

As to `O=C(C1CCCC1)N1CCN(c2nc3cc(Cl)ccc3c3nnc(C4CCCCC4)n23)CC1`, the “% Inhibition” value is on record as -13% and the Z score is on record as 1.57.

Take `C#CCNC1(C(=O)N(CC)CC)CCCCC1`: the “% Inhibition” value came to 3% and the Z score is reported as -0.4.

As to `COCCN1[C@@H]2CN(C(=O)Nc3cccc(OC)c3)C[C@@H]2OCCS1(=O)=O`, the “% Inhibition” value is given as 2% and the Z score was -0.31.

Turning to `O=C(NCCCS(=O)(=O)Cc1ccccc1)c1nc(N2CCCCC2)ncc1Cl`, the “% Inhibition” value was -9% and the Z score came to 1.78.

Regarding `CC#CCCNC(=O)NCc1ccco1`, the “% Inhibition” value was found to be 6% and the Z score is listed as -0.7.

On to `O=C(Cc1cncc(O)c1)N1CCC[C@H]1C(F)(F)F`, for which the “% Inhibition” value came to 1% and the Z score is -0.16.

Regarding `O=C(N[C@H]1CCCCNC1=O)c1cc(N2CCCCCCCC2)ccn1`, the “% Inhibition” value is 7% and the Z score was -0.93.

Regarding `CCNC(=O)C1(NCc2csc(CNC(=O)c3ccccc3)n2)CCCC1`, the “% Inhibition” value is recorded as 6% and the Z score is recorded as -0.65.
